# Test results from PMC4336329 (PLoS ONE, 2015).
# Screen size: about 310,000 compounds; about 2,200 (0.71%) showed an effect of 50% or more. The effect is printed as a negative number. The list shows a part of the results.
# Target: human ether-à-go-go-related gene (hERG) potassium channel (human, UniProt Q12809)
# Assay: primary screen, population patch clamp on CHO cells stably expressing hERG
# human ether-à-go-go-related gene (hERG) potassium channel, sequence (Q12809 whole entry, looked up): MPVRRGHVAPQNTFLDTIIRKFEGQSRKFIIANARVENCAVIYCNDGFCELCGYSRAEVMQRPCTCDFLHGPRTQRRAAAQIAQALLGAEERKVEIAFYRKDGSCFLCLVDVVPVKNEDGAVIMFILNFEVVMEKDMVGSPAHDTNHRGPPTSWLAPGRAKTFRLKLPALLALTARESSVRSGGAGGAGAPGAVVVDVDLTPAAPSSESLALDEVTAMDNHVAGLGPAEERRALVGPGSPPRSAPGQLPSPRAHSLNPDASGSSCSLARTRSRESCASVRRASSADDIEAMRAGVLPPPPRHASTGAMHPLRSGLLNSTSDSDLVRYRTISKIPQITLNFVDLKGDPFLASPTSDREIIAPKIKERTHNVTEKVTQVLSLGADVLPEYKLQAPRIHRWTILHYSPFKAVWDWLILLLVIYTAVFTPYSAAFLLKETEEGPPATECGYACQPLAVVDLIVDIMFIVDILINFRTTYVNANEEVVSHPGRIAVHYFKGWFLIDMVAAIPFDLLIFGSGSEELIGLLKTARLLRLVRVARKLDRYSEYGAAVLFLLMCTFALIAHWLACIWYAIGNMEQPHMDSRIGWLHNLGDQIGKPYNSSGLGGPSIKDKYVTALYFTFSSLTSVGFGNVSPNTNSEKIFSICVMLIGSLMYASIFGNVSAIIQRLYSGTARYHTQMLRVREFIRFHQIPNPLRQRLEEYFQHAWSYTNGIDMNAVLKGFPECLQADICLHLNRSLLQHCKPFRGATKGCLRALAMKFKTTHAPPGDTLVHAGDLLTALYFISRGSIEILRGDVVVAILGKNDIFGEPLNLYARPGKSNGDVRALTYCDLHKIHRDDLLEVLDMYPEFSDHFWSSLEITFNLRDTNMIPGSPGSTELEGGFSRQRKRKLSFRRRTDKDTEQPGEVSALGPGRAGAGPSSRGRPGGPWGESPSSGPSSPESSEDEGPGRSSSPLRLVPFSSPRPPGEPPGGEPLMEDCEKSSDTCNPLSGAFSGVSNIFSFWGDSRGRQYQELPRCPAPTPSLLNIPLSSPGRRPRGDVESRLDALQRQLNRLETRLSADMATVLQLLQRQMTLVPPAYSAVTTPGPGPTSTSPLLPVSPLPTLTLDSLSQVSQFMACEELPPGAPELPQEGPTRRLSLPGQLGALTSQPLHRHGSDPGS
row,SMILES,"hERG current change (%, negative = inhibition) at 1uM [%]"
1,CC(CN1CCN(Cc2ccccc2)CC1)c1ccccc1.O=C(O)C(=O)O (centres unmarked),11.3
2,COc1cccc(-n2c(Cc3cc(=O)[nH]c(=O)[nH]3)nnc2SCC(=O)N2CCC(C)CC2)c1,15.9
3,Cc1cc(C)cc(NC(=O)C2CCN(S(=O)(=O)c3ccc4c(c3)NC(=O)C(C)S4)CC2)c1 (centres unmarked),10.2
4,O=C(Nc1ccc(F)cc1)N1CCCC(c2nc3c(nnn3Cc3ccccc3Cl)c(=O)[nH]2)C1 (centres unmarked),13.4
5,Cc1ccc(N2C(=O)c3cccc4cccc(c34)C2=O)cc1,16.5
6,Cc1ccccc1Cn1c(C)nc2ccccc21,10.4
7,CCOC(=O)C1CCN(c2c(N3CCCCCC3)c(=O)c2=O)CC1,8.04
8,CCCc1c(C)nc(N2CCN(c3cccc(OC)c3)CC2)[nH]c1=O,18.7
9,Cc1nnc(C)c2c(C)n(C(C)c3ccccc3)c(C)c12 (centres unmarked),-1.28
10,CCOC(=O)COc1ccc2c(=O)c(-c3ccc(OC)c(OC)c3)c(C(=O)OCC)oc2c1,10.6
11,Cc1ccc(C(=O)N/C(=C\c2cccnc2)c2nc3ccccc3[nH]2)cc1,2.21
12,O=C1CCCN1c1cc(Cl)cc(Cl)c1,-1.03
13,O=C(COC(=O)/C=C/c1ccc(S(=O)(=O)N2CCOCC2)cc1)NC1CCCCCCC1,15.2
14,CCCCN(CC)CCNC(=O)Cn1cc2c(n1)-c1c(oc(C(=O)N3CCCC3)c1C)CC2,3.58
15,Cc1ccc(NC(=O)CSc2nnc(-c3ccncc3)n2C)cc1S(=O)(=O)N1CCOCC1,-1.81
16,Cc1cc(C)n(/N=C/c2cc([N+](=O)[O-])ccc2O)c(=O)c1,14.9
17,CC(=O)Nc1cccc(NC(=S)Nc2ccc(F)c(Cl)c2)c1,8.49
18,COc1ccc(NC(=S)Nc2ccc(S(N)(=O)=O)cc2)c(C)c1,14.6
19,Cc1nc([N+](=O)[O-])nn1C12CC3CC(CC(Br)(C3)C1)C2,5.03
20,COc1ccc(NC2=NCC(=O)N2c2ccccc2F)cc1.Cl,11.8
21,CC(=O)Nc1ccc(SCC(=O)c2ccc(Br)s2)cc1,16.4
22,Cc1ncoc1C(=O)N1CCc2c([nH]c3ccccc23)C1C(C)(C)C (centres unmarked),0.456
23,CC(OC(=O)/C=C/c1cccc(F)c1)C(=O)NC1CCCCC1C (centres unmarked),9.21

row,SMILES,"hERG current change (%, negative = inhibition) at 1uM [%]"
1,CC(NC(=O)c1ccco1)C(=O)N1CCN(S(=O)(=O)c2ccccc2C#N)CC1 (centres unmarked),3.03
2,CCC1CCCCN1CCCNC(=O)C1CCC(=O)N1Cc1ccc(C)cc1 (centres unmarked),13.4
3,CN(CCNC(=O)c1cn(C)c2ccc(S(=O)(=O)N3CCCC3)cc2c1=O)CCc1ccccc1,-1.68
4,O=c1[nH]c2cc3c(cc2cc1C(c1nnnn1C1CCCCC1)N1CCSCC1)OCCO3 (centres unmarked),3.34
5,Cc1nc2cc(C(F)(F)F)ccc2n1C1CCN(Cc2nnnn2CCc2ccccc2)CC1,-5.2
6,CC1CC(=O)N(CC(=O)Nc2ccc(F)cc2F)c2ccccc2S1(=O)=O (centres unmarked),0.457
7,COc1ccc(/C=C/C(=O)NCC(=O)N/N=C/c2cccs2)cc1,4.91
8,N#Cc1ccc(C(=O)Nc2nnc(-c3cccs3)o2)cc1,12.2
9,CCOC(=O)c1c(C)[nH]c(C2=NNC(=NC(C)COC)SC2)c1C (centres unmarked),11.7
10,Cc1ccc(C(C)C)c(OCC(=O)N2CCN(Cc3nc4cc([N+](=O)[O-])ccc4n3C)CC2)c1,-17.9
11,O=C(Nc1nnc(SCc2ccc(F)cc2)s1)c1cccnc1Cl,5.65
12,COc1ccc(N=CC2=C(O)c3ccccc3C2=O)cc1,9.01
13,CNC(=S)N(CCO)Cc1cc2cc3c(cc2[nH]c1=O)OCCO3,10.8
14,Cc1cc2c3ccccc3ncn2n1,20.1
15,COc1ccc(-c2ccnc3c(C(=O)O)cnn23)cc1,16
16,CCCC(=O)NC1C2CC3CC(C2)CC1C3 (centres unmarked),11.5
17,O=C(Cn1cnc2c(nnn2-c2ccccc2)c1=O)NCCc1ccccc1,1.61
18,CCOC(=O)c1cnc2nc[nH]n2c1=O,11
19,O=C(NN1C(=O)c2ccccc2C1=O)c1ccccc1[N+](=O)[O-],6.5
20,O=C(Nc1ccccn1)c1ccc([N+](=O)[O-])cc1Cl,6.99
21,COc1cccc2[nH]c3c(=O)n(CCCN4CCOCC4)cnc3c12,0.499
22,Cl.O=C(c1ccc(Cn2ccc([N+](=O)[O-])n2)cc1)N1CCN(Cc2ccccc2)CC1,-1.17
23,Cc1csc2c(N3CCN(C(=S)Nc4ccc(C(F)(F)F)cc4)CC3)ncnc12,17

row,SMILES,"hERG current change (%, negative = inhibition) at 1uM [%]"
1,Cc1ccc(S(=O)(=O)N2CCN3CCCC3C2)cc1 (centres unmarked),-5.48
2,Cc1ccccc1NC(=O)NCCCCc1ccccc1,-1.31
3,CC(C)CC(=O)NCCCCc1ccccc1,12.1
4,O=C(CCNS(=O)(=O)c1ccc(Br)cc1)NCc1ccc(Cl)cc1,16.4
5,CCN(CC)C(=O)COc1ccc2c3c(c(=O)oc2c1)CCCC3,9.9
6,CCc1cc(CNC(=O)CCc2nnc(Cc3cccc(C)c3)o2)on1,12.7
7,O=C(O)CCCN1C(=O)C(=O)/C(=C(/O)c2ccc(Cl)cc2)C1c1ccccc1 (centres unmarked),12.3
8,Cc1ccc(OCC(=O)NNC(=O)[C@@H]2CCCC[C@@H]2C(=O)O)c(Br)c1,16.6
9,CCCCC(c1nnnn1CCOC)N1CCN(Cc2ccccc2)CC1.Cl (centres unmarked),-11.8
10,COc1ccc(C)cc1Nc1nc(N)c2ccccc2n1.Cl,7.86
11,CCN(C(=O)COc1cccc2cccnc12)C1CCS(=O)(=O)C1 (centres unmarked),13.3
12,O=C(CCc1nc2ccccc2[nH]1)Nc1ccccc1F,12.7
13,O=C(c1ccc(-c2cc3ccccc3oc2=O)cc1)N1CCN(c2ccc(Cl)cc2[N+](=O)[O-])CC1,-1.77
14,CCC(CC)C(=O)NC1CCSC1=O (centres unmarked),12.4
15,CCOc1ccc(-c2nc(CSc3nnc(N)s3)cs2)cc1,9.35
16,CC(=O)c1sc(NCc2ccccc2)nc1C,19.1
17,COC(=O)c1cc(C(=O)NCc2ccc3c(c2)OCO3)cc([N+](=O)[O-])c1,5.16
18,O=C(N/N=C\c1ccc(Cl)s1)C1COc2ccccc2O1 (centres unmarked),12.7
19,COc1cccc(CN(CC(=O)NCc2ccccc2)C(=O)c2csnn2)c1,11.9
20,Cc1c(C(=O)OCC(=O)Nc2ccc3c(c2)OCO3)cccc1[N+](=O)[O-],-1.77
21,OC(COc1ccc(OCC(O)CN2CCCCC2)cc1)CN1CCCCC1 (centres unmarked),18.1
22,COc1ccc(-n2c(NNC(C)=O)nc3sc4c(c3c2=O)CCCC4)cc1,14.5
23,O=C(CSc1nnc(CCCN2C(=O)c3cccc4cccc(c34)C2=O)n1-c1ccccc1)NCCCO,11.6

row,SMILES,"hERG current change (%, negative = inhibition) at 1uM [%]"
1,COc1ccc(CNC(=O)c2nnn(-c3cccc(C(F)(F)F)c3)c2N)cc1,9.2
2,NS(=O)(=O)c1ccc(NC(=S)N2CCCC2)cc1,11.7
3,O=C(Cc1ccccc1)N1N=C(c2ccncc2)CC1(O)C(F)(F)F (centres unmarked),11.1
4,O=C(CCC1CCCN(Cc2ccc3c(c2)OCCO3)C1)NCc1ccc(F)c(F)c1 (centres unmarked),-39.3
5,CC1Cc2ccccc2N1C(=O)CSc1nc2c(c(=O)n(C)c(=O)n2C)n1Cc1ccccc1 (centres unmarked),-6.98
6,CCC(=O)Nc1ccc(C(=O)Nc2ccc(OC)cc2[N+](=O)[O-])cc1,7.65
7,CCOCC(=O)Nc1cc(C)on1,-8.39
8,NC1=NC(=O)CC(C(=O)NCCc2ccccc2)S1 (centres unmarked),16.3
9,CCOC(=O)C1=C(C)N(CCCC(=O)O)C(=O)NC1c1ccc(Cl)cc1 (centres unmarked),21.1
10,Cc1cc(C(F)(F)F)n2nc(C(=O)O)c(Cl)c2n1,6.65
11,Cn1c(C(=O)O)c(CC(=O)NCC2COc3ccccc3O2)c2ccccc21 (centres unmarked),8.01
12,Cc1cc(-c2nc3cccnc3s2)ccc1NS(=O)(=O)c1ccc2c(c1)OCCO2,12
13,Nc1ccccc1C(=O)/C=C/c1ccc2c(c1)OCO2,16.6
14,COc1ccc(-c2cc(C(=O)NCC(c3ccccc3)N(C)C)c3ccccc3n2)cc1OC (centres unmarked),-3.42
15,CN(C)C(=O)c1ccc(-c2cc(C(F)(F)F)nn2C)s1,6.88
16,NC(=O)CNC1CC(=O)N(CCc2ccccc2)C1=O (centres unmarked),8
17,COc1cc(/C=N/Nc2nncc3ccccc23)cc(OC)c1OC,6.92
18,CCSc1nc2ccccc2[nH]1,-0.69
19,CCOC(=O)C1=NN(c2ccc(OC)cc2)C2C(=O)N(c3ccccc3OC)C(=O)C12 (centres unmarked),11.8
20,CCN(CC)S(=O)(=O)c1ccc(Cl)c(NC(=O)COc2ccc3c(C)cc(=O)oc3c2)c1,6.68
